# From the supplement of paper PMC8728848
# This is one part of the list.
# B1: SBD-G4S3-Fc (protein)
# chain: MASIPSSASVQLDSYNYDGSTFSGKIYVKNIAYSKKVTVVYADGSDNWNNNGNIIAASFSGPISGSNYEYWTFSASVKGIKEFYIKYEVSGKTYYDNNNSANYQVSTGGGGSGGGGSGGGGSEFVPRDCGCKPCICTVPEVSSVFIFPPKPKDVLTITLTPKVTCVVVDISKDDPEVQFSWFVDDVEVHTAQTQPREEQFNSTFRSVSELPIMHQDWLNGKEFKCRVNSAAFPAPIEKTISKTKGRPKAPQVYTIPPPKEQMAKDKVSLTCMITDFFPEDITVEWQWNGQPAENYKNTQPIMDTDGSYFVYSKLNVQKSNWEAGNTFTCSVLHEGLHNHHTEKSLSHSPGAA
# How the values were obtained:
# Test in all cases: glycan array binding signal (z-score within array); higher = stronger binding
# Conditions in all cases: glycan notation: IUPAC condensed, linker removed
# [1] = biological target: Neu5Ac(a2-3)Gal(b1-3)GalNAc
# In short: (§1)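 Negative Z-scores can be read as non-binding. The Z-score is calculated within each array and then averaged across arrays of one protein sequence at different concentrations or buffers and across linkers. Arrays, 3228 in all, were curated from the Consortium for Functional Glycomics database and kept only where the protein sequence was available.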
# [2] = biological target: Neu5Ac(a2-3)Gal(b1-3)GalNAc(b1-3)Gal(a1-4)Gal(b1-4)Glc
# In short: as §1
# [3] = biological target: Neu5Ac(a2-3)Gal(b1-3)GalNAc(b1-4)[Neu5Ac(a2-3)]Gal(b1-4)Glc
# In short: as §1
# [4] = biological target: Neu5Ac(a2-3)Gal(b1-3)GalNAc(b1-4)[Neu5Ac(a2-8)Neu5Ac(a2-3)]Gal(b1-4)Glc
# In short: as §1
# [5] = biological target: Neu5Ac(a2-3)Gal(b1-3)GalNAc6S
# In short: as §1
# [6] = biological target: Neu5Ac(a2-3)Gal(b1-3)GlcNAc
# In short: as §1
# [7] = biological target: Neu5Ac(a2-3)Gal(b1-3)GlcNAc(b1-2)Man
# In short: as §1
# [8] = biological target: Neu5Ac(a2-3)Gal(b1-3)GlcNAc(b1-2)Man(a1-3)[GlcNAc(b1-4)][Neu5Ac(a2-3)Gal(b1-3)GlcNAc(b1-2)Man(a1-6)]Man(b1-4)GlcNAc(b1-4)GlcNAc
# In short: as §1
# [9] = biological target: Neu5Ac(a2-3)Gal(b1-3)GlcNAc(b1-2)Man(a1-3)[Neu5Ac(a2-3)Gal(b1-3)GlcNAc(b1-2)Man(a1-6)]Man(b1-4)GlcNAc(b1-4)GlcNAc
# In short: as §1
# [10] = biological target: Neu5Ac(a2-3)Gal(b1-3)GlcNAc(b1-3)Gal(b1-3)GlcNAc
# In short: as §1
# [11] = biological target: Neu5Ac(a2-3)Gal(b1-3)GlcNAc(b1-3)Gal(b1-4)GlcNAc
# In short: as §1
# [12] = biological target: Neu5Ac(a2-3)Gal(b1-3)GlcNAc(b1-3)GalNAc
# In short: as §1
# [13] = biological target: Neu5Ac(a2-3)Gal(b1-3)GlcNAc(b1-4)Gal(b1-4)Glc
# In short: as §1
# [14] = biological target: Neu5Ac(a2-3)Gal(b1-3)GlcNAc(b1-6)GalNAc
# In short: as §1
# [15] = biological target: Neu5Ac(a2-3)Gal(b1-3)GlcNAc6S
# In short: as §1
# [16] = biological target: Neu5Ac(a2-3)Gal(b1-3)[Fuc(a1-4)]GlcNAc
# In short: as §1
# [17] = biological target: Neu5Ac(a2-3)Gal(b1-3)[Fuc(a1-4)]GlcNAc(b1-3)Gal(b1-3)[Fuc(a1-4)]GlcNAc
# In short: as §1
# [18] = biological target: Neu5Ac(a2-3)Gal(b1-3)[Fuc(a1-4)]GlcNAc(b1-3)Gal(b1-4)[Fuc(a1-3)]GlcNAc
# In short: as §1
# [19] = biological target: Neu5Ac(a2-3)Gal(b1-3)[GlcNAc(b1-6)]GalNAc
# In short: as §1
# [20] = biological target: Neu5Ac(a2-3)Gal(b1-3)[Neu5Ac(a2-6)]GalNAc
# In short: as §1
# [21] = biological target: Neu5Ac(a2-3)Gal(b1-3)[Neu5Ac(a2-6)]GlcNAc(b1-3)[Fuc(a1-3)[Gal(b1-4)]GlcNAc(b1-6)]Gal(b1-4)Glc
# In short: as §1
# [22] = biological target: Neu5Ac(a2-3)Gal(b1-3)]Neu5Ac(a2-3)Gal(b1-4)]GlcNAc
# In short: as §1
# Neu5Ac(a2-3)Gal(b1-4)Glc = biological target: Neu5Ac(a2-3)Gal(b1-4)Glc
# In short: as §1
# [23] = biological target: Neu5Ac(a2-3)Gal(b1-4)GlcNAc
# In short: as §1
# [24] = biological target: Neu5Ac(a2-3)Gal(b1-4)GlcNAc(b1-2)Man
# In short: as §1
# [25] = biological target: Neu5Ac(a2-3)Gal(b1-4)GlcNAc(b1-2)Man(a1-3)[GlcNAc(b1-4)][Neu5Ac(a2-3)Gal(b1-4)GlcNAc(b1-2)Man(a1-6)]Man(b1-4)GlcNAc(b1-4)GlcNAc
# In short: as §1
# [26] = biological target: Neu5Ac(a2-3)Gal(b1-4)GlcNAc(b1-2)Man(a1-3)[Neu5Ac(a2-3)Gal(b1-4)GlcNAc(b1-2)Man(a1-6)]Man(b1-4)GlcNAc(b1-4)GlcNAc
# In short: as §1
# [27] = biological target: Neu5Ac(a2-3)Gal(b1-4)GlcNAc(b1-2)Man(a1-3)[Neu5Ac(a2-3)Gal(b1-4)GlcNAc(b1-2)Man(a1-6)]Man(b1-4)GlcNAc(b1-4)[Fuc(a1-6)]GlcNAc
# In short: as §1
# [28] = biological target: Neu5Ac(a2-3)Gal(b1-4)GlcNAc(b1-2)Man(a1-3)[Neu5Ac(a2-6)Gal(b1-4)GlcNAc(b1-2)Man(a1-6)]Man(b1-4)GlcNAc(b1-4)GlcNAc
# In short: as §1
# [29] = biological target: Neu5Ac(a2-3)Gal(b1-4)GlcNAc(b1-2)[Neu5Ac(a2-3)Gal(b1-4)GlcNAc(b1-4)]Man(a1-3)[GlcNAc(b1-4)][Neu5Ac(a2-3)Gal(b1-4)GlcNAc(b1-2)[Neu5Ac(a2-3)Gal(b1-4)GlcNAc(b1-6)]Man(a1-6)]Man(b1-4)GlcNAc(b1-4)GlcNAc
# In short: as §1
# [30] = biological target: Neu5Ac(a2-3)Gal(b1-4)GlcNAc(b1-2)[Neu5Ac(a2-3)Gal(b1-4)GlcNAc(b1-4)]Man(a1-3)[GlcNAc(b1-4)][Neu5Ac(a2-3)Gal(b1-4)GlcNAc(b1-4)Man(a1-6)]Man(b1-4)GlcNAc(b1-4)GlcNAc
# In short: as §1
# [31] = biological target: Neu5Ac(a2-3)Gal(b1-4)GlcNAc(b1-2)[Neu5Ac(a2-3)Gal(b1-4)GlcNAc(b1-6)]Man(a1-6)[Neu5Ac(a2-3)Gal(b1-4)GlcNAc(b1-2)Man(a1-3)]Man(b1-4)GlcNAc(b1-4)GlcNAc
# In short: as §1
# [32] = biological target: Neu5Ac(a2-3)Gal(b1-4)GlcNAc(b1-2)[Neu5Ac(a2-3)Gal(b1-4)GlcNAc(b1-6)]Man(a1-6)[Neu5Ac(a2-3)Gal(b1-4)GlcNAc(b1-2)Man(a1-3)][GlcNAc(b1-4)]Man(b1-4)GlcNAc(b1-4)GlcNAc
# In short: as §1
# [33] = biological target: Neu5Ac(a2-3)Gal(b1-4)GlcNAc(b1-3)Gal
# In short: as §1
# [34] = biological target: Neu5Ac(a2-3)Gal(b1-4)GlcNAc(b1-3)Gal(b1-3)GlcNAc
# In short: as §1
# [35] = biological target: Neu5Ac(a2-3)Gal(b1-4)GlcNAc(b1-3)Gal(b1-4)GlcNAc
# In short: as §1
# [36] = biological target: Neu5Ac(a2-3)Gal(b1-4)GlcNAc(b1-3)Gal(b1-4)GlcNAc(b1-2)Man(a1-3)[Neu5Ac(a2-3)Gal(b1-4)GlcNAc(b1-3)Gal(b1-4)GlcNAc(b1-2)Man(a1-6)]Man(b1-4)GlcNAc(b1-4)GlcNAc
# In short: as §1
# [37] = biological target: Neu5Ac(a2-3)Gal(b1-4)GlcNAc(b1-3)Gal(b1-4)GlcNAc(b1-3)Gal(b1-4)GlcNAc
# In short: as §1
# [38] = biological target: Neu5Ac(a2-3)Gal(b1-4)GlcNAc(b1-3)Gal(b1-4)GlcNAc(b1-3)Gal(b1-4)GlcNAc(b1-2)Man(a1-3)[Neu5Ac(a2-3)Gal(b1-4)GlcNAc(b1-3)Gal(b1-4)GlcNAc(b1-3)Gal(b1-4)GlcNAc(b1-2)Man(a1-6)]GalNAc
# In short: as §1
# [39] = biological target: Neu5Ac(a2-3)Gal(b1-4)GlcNAc(b1-3)Gal(b1-4)GlcNAc(b1-3)GalNAc
# In short: as §1
# [40] = biological target: Neu5Ac(a2-3)Gal(b1-4)GlcNAc(b1-3)Gal(b1-4)GlcNAc(b1-3)[Neu5Ac(a2-3)Gal(b1-4)GlcNAc(b1-3)Gal(b1-4)GlcNAc(b1-6)]GalNAc
# In short: as §1
# [41] = biological target: Neu5Ac(a2-3)Gal(b1-4)GlcNAc(b1-3)Gal(b1-4)GlcNAc(b1-6)[Gal(b1-3)]GalNAc
# In short: as §1
# [42] = biological target: Neu5Ac(a2-3)Gal(b1-4)GlcNAc(b1-3)Gal(b1-4)[Fuc(a1-3)]GlcNAc
# In short: as §1
# [43] = biological target: Neu5Ac(a2-3)Gal(b1-4)GlcNAc(b1-3)GalNAc
# In short: as §1
# [44] = biological target: Neu5Ac(a2-3)Gal(b1-4)GlcNAc(b1-3)[Neu5Ac(a2-3)Gal(b1-4)GlcNAc(b1-6)]GalNAc
# In short: as §1
binder,measurement,setting,value
B1,glycan array binding signal (z-score),[1],-0.124
same,glycan array binding signal (z-score),[2],0.378
same,glycan array binding signal (z-score),[3],-0.175
same,glycan array binding signal (z-score),[4],-0.023
same,glycan array binding signal (z-score),[5],-0.106
same,glycan array binding signal (z-score),[6],-0.188
same,glycan array binding signal (z-score),[7],-0.31
same,glycan array binding signal (z-score),[8],0.341
same,glycan array binding signal (z-score),[9],0.147
same,glycan array binding signal (z-score),[10],-0.143
same,glycan array binding signal (z-score),[11],-0.472
same,glycan array binding signal (z-score),[12],-0.104
same,glycan array binding signal (z-score),[13],-0.403
same,glycan array binding signal (z-score),[14],-0.367
same,glycan array binding signal (z-score),[15],-0.298
same,glycan array binding signal (z-score),[16],-0.191
same,glycan array binding signal (z-score),[17],0.232
same,glycan array binding signal (z-score),[18],-0.04
same,glycan array binding signal (z-score),[19],-0.317
same,glycan array binding signal (z-score),[20],0.154
same,glycan array binding signal (z-score),[21],-0.451
same,glycan array binding signal (z-score),[22],-0.134
same,glycan array binding signal (z-score),Neu5Ac(a2-3)Gal(b1-4)Glc,-0.204
same,glycan array binding signal (z-score),[23],-0.154
same,glycan array binding signal (z-score),[24],0.524
same,glycan array binding signal (z-score),[25],-0.442
same,glycan array binding signal (z-score),[26],-0.115
same,glycan array binding signal (z-score),[27],0.186
same,glycan array binding signal (z-score),[28],0.113
same,glycan array binding signal (z-score),[29],-0.281
same,glycan array binding signal (z-score),[30],-0.172
same,glycan array binding signal (z-score),[31],0.242
same,glycan array binding signal (z-score),[32],-0.24
same,glycan array binding signal (z-score),[33],-0.181
same,glycan array binding signal (z-score),[34],-0.229
same,glycan array binding signal (z-score),[35],-0.321
same,glycan array binding signal (z-score),[36],0.222
same,glycan array binding signal (z-score),[37],0.781
same,glycan array binding signal (z-score),[38],0.357
same,glycan array binding signal (z-score),[39],-0.006
same,glycan array binding signal (z-score),[40],-0.047
same,glycan array binding signal (z-score),[41],-0.041
same,glycan array binding signal (z-score),[42],-0.215
same,glycan array binding signal (z-score),[43],-0.285
same,glycan array binding signal (z-score),[44],-0.412
